In article PMC13083723 (Patterns, 2026) one finds result_ITMP data, which are given here for 55 compounds.

Out of some 5,400 compounds screened, about 190 (3.5%) showed an effect of 50% or more. This is one part of the list. Starred links: 1 amine or outer side, 2 acyl side, 3 side chain; linkers in the order of their positions; H or OH if unused. Positions of bridges follow the written chain, without caps; N, C: chain ends. Non-standard residues stand in square brackets, D forms with d. Residues, ends and D or L forms follow the SMILES beside them. *: point of attachment. X5 = NC1=N[C@@H](O)C[C@H]([C@H](N[*:1])C(=O)[*:2])N1; ΔAla(Z-3-ureido) = NC(=O)N/C=C(\N)C(=O)O; β3hOrn = NCCC[C@H](N)CC(=O)*; Dap = NC[C@H](N)C(=O)O

The test system of the assay is Vero-E6. The experiment in a line: primary screen, phospholipidosis by LipidTOX staining; higher = more effect of the substance. To be noted: 10 µM. The procedure, abridged:
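Single-concentration screen at 10 μM, with DMSO 0.1 v/v % and amiodarone 10 μM as controls. Read-out is LipidTOX Red phospholipid staining, which tolerates aldehyde fixation, in Vero-E6 cells.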
`CCn1nc(C)c2c1C(c1ccccc1)=NCC(=O)N2`: the result_ITMP is on record as -0.8%. As to `COc1cccc2c1C(=O)c1c(O)c3c(c(O)c1C2=O)C[C@@](O)(/C(CO)=N/NC(=O)CCCCCN1C(=O)C=CC1=O)C[C@@H]3O[C@H]1C[C@H](N)[C@H](O)[C@H](C)O1`, the result_ITMP is given as 0.08%.

In the case of `COc1cc2c(NC3CCN(C)CC3)nc(N3CCCN(C)CC3)nc2cc1OCCOCCN(C)C`, the result_ITMP was 0.39%. Take `O=[N+]([O-])c1cc(Cl)ccc1S(=O)(=O)N1CCN(Cc2ccccc2)CC1`: the result_ITMP was -1.83%.

For `CCSc1ccc2c(c1)N(CCCN1CCN(C)CC1)c1ccccc1S2`, the result_ITMP was found to be 59.1%. As for `CCCCc1nn(-c2ccccc2C(F)(F)F)c(=O)n1Cc1ccc(-c2ccccc2S(=O)(=O)NC(=O)c2sccc2C)cc1`, the figure is -5.04%; as for `Cc1c(O)cccc1C(=O)N[C@@H](CSc1ccccc1)[C@H](O)CN1C[C@H]2CCCC[C@H]2C[C@H]1C(=O)NC(C)(C)C`, 5.12%; as for `CC(C)CCC[C@@H](C)[C@H]1CC[C@H]2[C@@H]3CC=C4C[C@@H](O)CC[C@]4(C)[C@H]3CC[C@]12C`, -3.63%. As for `CC(C)NCCCn1c(Sc2cc3c(cc2I)OCO3)nc2c(N)ncnc21`, the figure is -5.56%. As for `O=C(CN1CCN(Cc2ccc3c(c2)OCO3)CC1)N1c2ccccc2Sc2ccccc21`, the figure is 15.4%; as for `CN(C)CCC(c1ccccc1)c1ccccn1` (stereo not shown), -3.41%; as for `Cc1cccc(Nc2nc(-c3ccncc3)cs2)c1`, -9.7%. Turning to `NC[C@H]1CC[C@H](C(=O)O)CC1`, the result_ITMP is -3.43%. For `C=CCc1ccccc1OCC(O)CNC(C)C` (stereo not shown) the value was 12.1%; for `Oc1c(Cl)cc(Cl)cc1Sc1cc(Cl)cc(Cl)c1O`, 0.89%.

Consider `O=C(CBr)N1CC([N+](=O)[O-])([N+](=O)[O-])C1`, for which the result_ITMP stood at 0.64%.

In the case of `CCCCOc1ccc(CC(=O)NO)cc1`, the result_ITMP was -3.14%. `CN(C)c1ccc(/C=C2\C(=O)Nc3ccccc32)cc1`: the result_ITMP was -0.66%. As for `Cc1ccc(O)c([C@H](CCN(C(C)C)C(C)C)c2ccccc2)c1`, the figure is 37.1%; as for `CCCCCCCCCCCCCCCCO`, -6.99%; as for `CO/N=C(\C(=O)N[C@@H]1C(=O)N2C(C(=O)O)=C(CSc3nc(C)c(CC(=O)O)s3)CS[C@H]12)c1csc(N)n1`, -5.71%. As for `CCN1/C(=C/C(C)=O)Sc2ccc(OC)cc21`, the figure is -4.89%. On to `COc1ccc2c(NC(=O)Nc3cccc(C(F)(F)F)n3)ccnc2c1`, for which the result_ITMP worked out at 4.8%. With `COc1ccc2nc3cc(Cl)ccc3c(Nc3cc(CN4CCCC4)c(O)c(CN4CCCC4)c3)c2n1`, the result_ITMP is recorded as -2.34%.

With `CC(=O)c1ccc2c(c1)N(CCCN1CCN(CCO)CC1)c1ccccc1S2`, the result_ITMP was determined as 74.4%. In the case of `Cc1c(CC(C)(C)C(=O)O)n(Cc2ccc(Cl)cc2)c2ccc(F)cc12`, the result_ITMP stood at 3.69%. As for `CS(=O)(=O)c1ccc(Cn2c3c(c4cc(F)cc(F)c42)CCCC3CC(=O)O)cc1` (stereo not shown), the figure is -2.27%. For `Cc1c(Cl)cccc1S(=O)(=O)Nc1nc(NCCc2ccccc2)nc2c1CN(Cc1ccccc1)CC2` the value was -0.11%; for `COc1cc2c(NC3CCN(C4CCCCC4)CC3)nc(N3CCCN(C(C)C)CC3)nc2cc1OCCCN1CCCCC1`, -1.55%; for `NC1C[C@H]1c1ccccc1` (stereo partly shown), -1.26%. As for `C[C@H](CCC(=O)O)[C@H]1CC[C@H]2[C@@H]3CC[C@@H]4C[C@H](O)CC[C@]4(C)[C@H]3CC[C@]12C`, the figure is -0.58%. Turning to `C[C@]12CC[C@H](O)C[C@H]1CC[C@@H]1[C@@H]2CC[C@]2(C)[C@@H](C3=CC(=O)OC3)CC[C@]12O`, the result_ITMP was -8.72%. For `CC(C)c1c2cc(-c3ccnc(N[C@H]4CC[C@H](NC5CCOCC5)CC4)n3)ccc2nn1C` the value was -12.3%; for `NCCC[C@H](N)CC(=O)N[C@H]1CNC(=O)[C@H]([C@H]2C[C@H](O)N=C(N)N2)NC(=O)/C(=C/NC(N)=O)NC(=O)[C@H](CO)NC(=O)[C@H](CO)NC1=O` (β3hOrn-[Dap]SS[ΔAla(Z-3-ureido)][X5]; lactam 1-C), -3.72%.

With `Nc1ccc(C(=O)[O-])c(O)c1`, the result_ITMP is -0.28%. For `CON(C)C(=O)[C@H](O)[C@H](Cc1ccccc1)NC(=O)c1cc2cc(Cl)ccc2[nH]1` the value was -0.75%. With `Clc1ccc(COC(Cn2ccnc2)c2ccc(Cl)cc2Cl)cc1` (stereo not shown), the result_ITMP came to 4.76%.

With `CCC(=O)NC[C@@H]1C[C@H]1c1cccc2c1CCO2`, the result_ITMP is -5.55%. As for `C[C@]12CC[C@@H]3c4ccc(O)cc4CC[C@H]3[C@@H]1[C@@H](O)[C@@H](O)[C@@H]2O`, the figure is -3.61%. As for `CO/N=C1\CN(c2nc3c(cc2F)c(=O)c(C(=O)O)cn3C2CC2)CC1CN` (stereo not shown), the figure is 7.81%; as for `NC(=O)NO`, -3.87%; as for `Clc1ccccc1C(c1ccccc1)(c1ccccc1)n1ccnc1`, 1.2%. For `CC(C)(C)c1ccc(S(=O)(=O)NCc2ccc(C(=O)Nc3cccnc3)cc2)cc1` the value was 0.31%; for `C=CC[N@@+]12CC[C@@]34c5ccccc5N5/C=C6/[C@H]7C[C@H]8[C@@]9(CC[N@@+]8(CC=C)C/C7=C/CO)c7ccccc7N(/C=C(/[C@@H](C[C@@H]31)/C(=C\CO)C2)[C@H]54)[C@@H]69`, -6.64%; for `Cc1cc(CC(C)CC(C)(C)C)n(O)c(=O)c1` (stereo not shown), -2.28%. Regarding `CN1CCC[C@H]1c1cccnc1`, the result_ITMP is listed as -9.85%. As for `CCCC(C(=O)OCCN(CC)CC)(c1ccccc1)c1ccccc1`, the figure is 14.9%; as for `CCOc1nc2c(N)ncnc2n1CC`, -2.12%. On to `O=C(NN1C(=O)[C@@H]2[C@@H]3C=C[C@@H]([C@H]4C[C@@H]34)[C@@H]2C1=O)c1ccc(C(F)(F)F)cc1`, for which the result_ITMP is -0.89%.

In the case of `COc1ccc(-n2nc(CCC(=O)N(C)O)cc2-c2ccc(Cl)cc2)cc1`, the result_ITMP is given as 4.73%. Turning to `CCC(O)(CC(N)=O)c1ccccc1` (stereo not shown), the result_ITMP amounted to 1.38%. As for `NC(Cc1ccc(O)cc1)C(=O)O` (racemic), the figure is -3.28%; as for `O=C(O)c1cc(O)c(O)c(O)c1`, -3.35%. For `CCN(CC)C(=O)N1CCN(C)CC1`, the result_ITMP is -3.95%.

Regarding `CCCCC#Cc1nc(NC)c2ncn([C@@H]3O[C@H](CO)[C@@H](O)[C@H]3O)c2n1`, the result_ITMP was -6.97%.
